Among all 340,000 compounds or so, about 12,000 (3.5%) were called active. The inconclusive results got no clear call from the source; some entries with a clear call stand among them for comparison. The call rests on the fitted dose curve; in most records, active means well fitted inhibition curve with a large enough effect; inconclusive means small, poorly fitted or top-dose-only effect, or another doubt; inactive means no such curve, though single readings can be large or run the other way. No potency is given beside an inconclusive call; the fits are too rough.
Assay: qHTS Assay for Inhibitors of Hepatitis C Virus (HCV)
Settings: Huh7.5.1 HCVcc-Cre (HCVcc is cell-culture hepatitis C virus) infection, luciferase reporter, 44 h; activity change, negative = inhibition: at 41.8 µM (top of the series)
How it was run: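 HCVcc-Cre virus at an moi near 0.5 was added right after compound to cells cultured 4 h from seeding (1,000 cells/well). Luciferase activity was determined 44 h later, 15 min after substrate addition at RT.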
On the % scale 0 is the no-effect control and ±100 the full control effect; potency means the concentration at half of the fitted maximal effect; tags describe the fitted curve by direction and shape.

SMILES | activity change, negative = inhibition | Potency
COc1ccc(NC(=O)COC(=O)CNC(=O)C2CCCCC2)cc1OC | inactive: 5.97% | 
CCC(C)n1c(=O)c(C(=O)Nc2ccccc2S(N)(=O)=O)c(O)c2ccccc21 (stereo unspecified) |  | inconclusive [inhibitor, single point]
COc1ccc(O[C@H]2C=C[C@@H](c3ccccc3)O[C@@H]2CO/N=C(\C)CCC(=O)OC[C@H]2O[C@H](c3ccccc3)C=C[C@@H]2Oc2ccc(OC)cc2)cc1 | inactive: -5.36% [at 8.37 µM] | 
Cc1ccc(C(=O)Nc2ccc3c(c2)C(=O)N(C)C3=O)c(C)c1 | inactive: 12% | 
O=C(c1ccc(C(=O)N2CCCc3ccccc32)s1)N1CCCc2ccccc21 |  | inconclusive [inhibitor, partial curve]
O=C(c1cc(-c2ccc(Cl)cc2)nc2ccccc12)N1CCOCC1 |  | inconclusive [inhibitor, single point]
Cn1c(=O)n(C)c2cc([N+](=O)[O-])c(N3CCN(S(=O)(=O)c4ccccc4)CC3)cc21 |  | inconclusive [inhibitor, partial curve]
CCN(CC)c1ccc(NC(=O)Cn2nnc(-c3cccc(OC)c3OC)n2)c(C)c1 |  | inconclusive [inhibitor, single point]
O=C1S/C(=C/c2ccc(N3CCOCC3)o2)C(=O)N1Cc1c(F)cccc1Cl |  | inconclusive [inhibitor, full curve]
CCCOc1ccc(C(C)=O)cc1CN1CCOCC1 | inactive: 13.3% | 
O=C(/C=C/c1ccccc1Cl)Nc1ccccc1 |  | inconclusive [inhibitor, full curve]
COc1ccc(NC(=O)Cn2c(C)cc(=O)c3ccccc32)cc1 |  | active: 7.08 µM
CCCOC(=O)/C(=C\C=C\c1ccco1)NC(=O)c1ccccc1 | inactive: 0.503% | 
Cc1ccc(-c2nnc(NCc3ccccc3)c3ccccc23)cc1 |  | active: 11.2 µM
Cc1nc(NN)c2c3c(sc2n1)COC(C)(C)C3 |  | inconclusive [inhibitor, single point]
CSc1ccccc1C(=O)C1CCCN(Cc2cnn(-c3ccccc3)c2)C1 (stereo unspecified) |  | inconclusive [inhibitor, single point]
O=C(CSc1nnc(-c2ccccc2)o1)NCC1CCCCC1 |  | inconclusive [inhibitor, full curve]
Cc1cc2sc3ccccc3c(=O)c2c(C)c1O |  | inconclusive [inhibitor, full curve]
COc1cccc(C(=O)C2CCCN(Cc3cccc(-n4nc(C)cc4C)c3)C2)c1 (stereo unspecified) |  | active: 35.5 µM
CCC(C)NC(=O)c1cn(-c2cccc(C)n2)cn1 (stereo unspecified) | inactive: 3.95% | 
CCCCCCCCC[n+]1cccc2c3ccccc3ccc21 |  | active: 4.47 µM
CC1CCN(C(=O)CSc2nc(C3CC3)nc3ccccc23)CC1 |  | inconclusive [inhibitor, single point]
COc1cc(/C=C/CN2CCC(CO)(CC3CCCCO3)CC2)ccc1O (stereo unspecified) |  | inconclusive [inhibitor, single point]

SMILES | activity change, negative = inhibition | Potency
CCCCn1c(-c2cccnc2)n[nH]c1=S | inactive: 2.57% | 
CN(C(=O)COC(=O)CNC(=O)c1ccccc1Cl)c1ccccc1 | inactive: 25% | 
COc1cc(CCC(=O)Nc2ccc(C)c(S(=O)(=O)N3CCCCCC3)c2)cc(OC)c1OC |  | active: 7.94 µM
CC(CC(C)(C)N1CC1)=NNC(=O)Nc1cccc2ccccc12 |  | inconclusive [inhibitor, partial curve, poor fit]
CC(C)OC(=O)c1cccnc1N1CCN(c2ccc(F)cc2)CC1 |  | inconclusive [inhibitor, single point]
CCCCCC(=O)NN1C(=S)N(c2ccc(OC)cc2)C(=O)C1CC(=O)Nc1ccccc1 (stereo unspecified) |  | inconclusive [inhibitor, single point]
CC(=O)OCC1(O)CC23CCC4c5ccoc5CCC4(C)C2CCC1C3 (stereo unspecified) |  | inconclusive [inhibitor, full curve]
COC(=O)c1ccc(=O)c2nc3/c(=C/O)c(O)cc(=O)c3[nH]c12 |  | inconclusive [inhibitor, partial curve, poor fit]
CCOC(=O)c1sc2c(c1C)c(=O)n(Cc1ccccc1)c(=O)n2CCN(C)C | inactive: -7.17% | 
CCOC(=O)Cc1csc(NC(=O)c2ccc(S(=O)(=O)N3CCCC3)cc2)n1 |  | inconclusive [inhibitor, single point]
Cc1sc2ncnc(SCC(=O)N3CCC(c4noc5ccc(F)cc45)CC3)c2c1C | inactive: -7.22% | 
Cc1nn(C(C)C(=O)NC(C)CCc2ccccc2)c(=O)c2cc3occc3n12 (stereo unspecified) |  | inconclusive [inhibitor, partial curve, poor fit]
COc1ccccc1N1CCN(Cc2ccc(SC)cc2)CC1 |  | inconclusive [inhibitor, single point]
Cc1cc(C)c(Cn2c3ccccc3c3cnn(CC(=O)NCc4ccccn4)c(=O)c32)c(C)c1 |  | inconclusive [inhibitor, single point]
Cc1csc2ncnc(NNC(=O)c3ccc(Cl)cc3)c12 |  | active: 7.94 µM
COC(=O)c1ccc(N2CCN(C)CC2)c(NC(=O)c2ccc(Br)o2)c1 |  | inconclusive [inhibitor, single point]
CCOc1ccc(NC(=O)CN(C)C(=O)c2sccc2-c2ccccc2)cc1OCC |  | inconclusive [inhibitor, single point]
c1ccc2c(c1)ccc1ccccc12 | inactive: 2.27% | 
CCOc1ccccc1CNCCNCC(C)O (stereo unspecified) | inactive: 5.08% | 
COc1ccc(N/C(C)=C/C(=O)c2ccccc2)cc1 |  | active: 10 µM
COc1ccc(Cc2[nH]n3c(=O)cc(C(C)C)nc3c2-c2ccccc2)cc1 |  | inconclusive [inhibitor, single point]
O=C(Nc1cnccn1)Nc1ccccc1Cl |  | inconclusive [inhibitor, partial curve]
Cc1ccc(/C=C/C(=O)Nc2ccc(S(N)(=O)=O)cc2)o1 |  | inconclusive [inhibitor, partial curve]
